Reference: the supplement of paper PMC10338343
± gives the standard deviation. The full ranking holds about 5,500 sequences; the median of “pre-steady-state target cleavage rate” is about 0.1, and the highest 2% start at about 0.64. The list shows a part of the results, in another mix than the full data.

System: MIWI (PIWIL1) piRISC loaded with piRNA #2 (30 nt)
Test: pre-steady-state target cleavage rate (min^-1); MIWI and MILI are mouse PIWI proteins and EfPiwi is from a freshwater sponge; tags in brackets are library labels; higher = faster piRNA-guided slicing of the target
Conditions: guide: piRNA #2 5'p-UUAGGUAACCCAGUAGAUCCAGAGGAAUUC; auxiliary factor: 500 nM mouse GTSF1
In short: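 Cleave-'n-Seq used a transcribed, DNA-blocked target RNA library at 0.1 nM and active affinity-purified piRISC with one synthetic guide at 1 nM, with or without 500 nM GTSF1 partner protein, in HEPES–potassium acetate buffer at 33 °C for 0–8 or 0–960 min. Uncleaved targets were sequenced and normalised to depth and to weakly complementary targets, and three trials were pooled with k3 capped at 0.0001 min^-1. The pre-steady-state cleavage rate was estimated by a burst-and-steady-state fit.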

Sequence	pre-steady-state target cleavage rate
GAAUUGCUCUGGAUCUACUGGGUUACCAAA	0.141 ± 0.037
CUUAAGGUCUGGAUCUACUGGGUUUCCUAA	0.176 ± 0.024
CUUAAGGUCUGGAUCUACUGGGCUUACCUAA	0.013 ± 0.011
CUUAAGGAGACCAUCUACUGCGAUACCUAA	0.0042 ± 0.0015
GAAUUCGUCUGGAUCUACAGGGUUACCUAA	0.179 ± 0.03
CUUAAGGUCUGGAUCUACUGGGUUACCAAA	0.223 ± 0.034
GAAUUCCUCUGGAUCUUCAGGGUUACCUAA	0.11 ± 0.016
CUUUUCAUCUGGAUCUACUGGGUUACCUAA	0.471 ± 0.036
CAAUUCCUGUGGAUGUACUGGGUUACCUAA	0.512 ± 0.052
CUUUUCCUCUGGAUCUACUGGGUUACCGUAA	0.35 ± 0.05
CUUUUACCUCUGGAUCUACUGGGUUACCUAA	0.206 ± 0.032
GAAUUCCACUGGAUCUACUGGGUUACCUAA	0.56 ± 0.05
CAAUUCCUCUGGAUCAACUGGCUUACCUAA	0.0707 ± 0.018
CUUAAGCUCUGGAUCUACUGGGUAUCCUAA	0.0379 ± 0.013
CUUUUCCCCUGGAUCUACUGGGUUACCUAA	0.47 ± 0.03
CUUUUCCUCUGGAUCCACUGGGUUACCUAA	0.23 ± 0.031
CUUAUCCUCUCGAUCUACUCGGUUACCUAA	0.16 ± 0.011
GAUUUCCUCUGGAUCUACUGGGUUAGCUAA	0.439 ± 0.058
GAAUUCCUCUGGAUCUACAGGCUUACCUAA	0.0414 ± 0.009
CAAUUCCUCUGGAUCUACUGGGUUAACUAA	0.386 ± 0.098
CUUAUCCACAGGAUCUACUGGGUUACCUAA	0.299 ± 0.047
CUUUUCCUCUGGAUCUACUGGGUUGACCUAA	0.381 ± 0.035
CUUAAGCUCUGGAUCUACUGGGUUAUCCUAA	0.0842 ± 0.014

Sequence	pre-steady-state target cleavage rate
GAUUUCGUCUGGAUCUACUGGGUUACCUAA	0.369 ± 0.058
CUAUUCCUGUGGAUCUACUGGGAUACCUAA	0.251 ± 0.024
CUUUUCCUGUGGAUCUUCUGGGUUACCUAA	0.276 ± 0.051
CAAUUCCUCUGGAUCUACUCCGUUACCUAA	0.0223 ± 0.0077
CUUAUCGUCUGGAACUACUGGGUUACCUAA	0.417 ± 0.046
CUUUUCCACUGGAUCUACUGGGUUACCUUA	0.467 ± 0.052
CAAUUCCUCUCGAUCUACUGGGAUACCUAA	0.623 ± 0.043
CUUAAGGUCUGGAUCAACUGGGAUACCUAA	0.06 ± 0.018
CUAUUCCUCUGGAUGAACUGGGUUACCUAA	0.306 ± 0.059
CUUAAGCUCUGGAUCUACUGGGUCACCUAA	0.0537 ± 0.014
GAAUUCCUGUGGAUCUACUGGCUUACCUAA	0.0708 ± 0.021
GCAUUCCUCUGGAUCUACUGGGUUACCUAA	0.124 ± 0.033
CUUAAGGAGACCUUCUACUGGGUUACAUAA	0.0107 ± 0.0023
CUUUUGGACUGGAUCUACUGGGUUACCUAA	0.216 ± 0.058
CUUAAGGAGUGGAUCCUACUGGGUUACCUAA	0.00512 ± 0.0024
CUUAAGGACUGGAUCUAGUGGGUUACGUAA	0.149 ± 0.033
CUUAACCUCUGGAACUACUGGGUAACCUAA	0.0846 ± 0.0098
CUAUUCCUCUGAGAUCUACUGGGUUACCUAA	0.471 ± 0.042
CAAUUCCUCUGGAACUACUGGGAUACCUAA	0.174 ± 0.034
CUUAAGGUCAGGUUCUACUGGGUUACCUAA	0.0162 ± 0.0043
CUUAUCGUGUGGAUCUACUGGGUUACCUAA	0.318 ± 0.042
CUUAAGGUGUGGAUCUAGUGGGUUACCUAA	0.0159 ± 0.005
CAAUUCCACUGGAUCUACUGCGUUACCUAA	0.468 ± 0.067
